What is called Tm is the temperature at the midpoint of the melting transition.

The values that follow come from FireProtDB (doi:10.1021/bi00007a007).

The conditions of this data set: Escherichia coli (strain K12); pH 7; Thermal; DSC; Sodium phosphate 50 mM; reversible: yes.

For the substance “Thioredoxin 1 wild type (sequence not shown)”, the Tm was 85.3 °C and the “heat capacity change of unfolding” value stood at 1.9 kcal/mol/K.
